# Experimental data reported in the supplement of paper PMC8728848.
# The list shows a part of the results.
# B1: PA-IL (Pseudomonas aeruginosa), Q05097 (protein)
# chain: MAWKGEVLANNEAGQVTSIIYNPGDVITIVAAGWASYGPTQKWGPQGDREHPDQGLICHDAFCGALVMKIGNSGTIPVNTGLFRWVAPNNVQGAITLIYNDVPGTYGNNSGSFSVNIGKDQS
# What was measured:
# Assay in all cases: glycan array binding signal (z-score within array); higher = stronger binding
# Conditions in all cases: glycan notation: IUPAC condensed, linker removed
# [1] = target: GalNAc(b1-4)Gal(b1-4)Glc
# Outline: (§1)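 Glycan array binding is given as a within-array Z-score, which can be read as non-binding when negative. The arrays, 3228 of them, came from the Consortium for Functional Glycomics database and were retained only where the protein sequence was available. Z-scores were averaged across arrays of the same protein sequence at different concentrations or buffers and across linkers.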
# [2] = target: GalNAc(b1-4)GlcNAc
# Outline: as §1
# [3] = target: GalNAc(b1-4)GlcNAc(b1-2)Man
# Outline: as §1
# [4] = target: GalNAc(b1-4)GlcNAc(b1-2)Man(a1-3)[GalNAc(b1-4)GlcNAc(b1-2)Man(a1-6)]Man(b1-4)GlcNAc(b1-4)GlcNAc
# Outline: as §1
# [5] = target: GalNAc(b1-4)GlcNAc(b1-3)GalNAc(b1-4)GlcNAc
# Outline: as §1
# [6] = target: GalNAc(b1-4)GlcNAc6S
# Outline: as §1
# [7] = target: GalNAc(b1-6)GalNAc
# Outline: as §1
# [8] = target: GalNAc3S(b1-4)GlcNAc
# Outline: as §1
# [9] = target: GalNAc3S(b1-4)GlcNAc3S
# Outline: as §1
# [10] = target: GalNAc3S(b1-4)[Fuc(a1-3)]GlcNAc
# Outline: as §1
# [11] = target: GalNAc4S6S(b1-4)GlcNAc
# Outline: as §1
# [12] = target: GalNAc6S(b1-4)GlcNAc
# Outline: as §1
# [13] = target: Glc(a1-4)Glc
# Outline: as §1
# [14] = target: Glc(a1-4)Glc(a1-4)Glc(a1-4)Glc
# Outline: as §1
# [15] = target: Glc(a1-6)Glc(a1-6)Glc
# Outline: as §1
# [16] = target: Glc(a1-6)Glc(a1-6)Glc(a1-6)Glc
# Outline: as §1
# [17] = target: Glc(b1-4)Glc
# Outline: as §1
# [18] = target: Glc(b1-6)Glc
# Outline: as §1
# [19] = target: GlcA(b1-3)Gal
# Outline: as §1
# [20] = target: GlcA(b1-3)GlcNAc
# Outline: as §1
# [21] = target: GlcA(b1-6)Gal
# Outline: as §1
# [22] = target: GlcA3S(b1-3)Gal(b1-4)GlcNAc(b1-2)Man
# Outline: as §1
# [23] = target: GlcA3S(b1-3)Gal(b1-4)GlcNAc(b1-3)Gal(b1-4)Glc
# Outline: as §1
# [24] = target: GlcNAc(a1-3)Gal(b1-4)GlcNAc
# Outline: as §1
# [25] = target: GlcNAc(a1-4)Gal(b1-3)GlcNAc
# Outline: as §1
# [26] = target: GlcNAc(a1-4)Gal(b1-4)GalNAc
# Outline: as §1
# [27] = target: GlcNAc(a1-4)Gal(b1-4)GlcNAc
# Outline: as §1
# [28] = target: GlcNAc(a1-4)Gal(b1-4)GlcNAc(b1-3)Gal(b1-4)Glc
# Outline: as §1
# [29] = target: GlcNAc(a1-4)Gal(b1-4)GlcNAc(b1-3)Gal(b1-4)GlcNAc
# Outline: as §1
# [30] = target: GlcNAc(a1-4)Gal(b1-4)GlcNAc(b1-3)Gal(b1-4)GlcNAc(b1-3)Gal(b1-4)GlcNAc
# Outline: as §1
# [31] = target: GlcNAc(a1-4)Gal(b1-4)GlcNAc(b1-3)Gal(b1-4)[Fuc(a1-3)]GlcNAc(b1-3)Gal(b1-4)[Fuc(a1-3)]GlcNAc
# Outline: as §1
# [32] = target: GlcNAc(a1-6)Gal(b1-4)GlcNAc
# Outline: as §1
# [33] = target: GlcNAc(b1-2)Gal(b1-3)GalNAc
# Outline: as §1
# [34] = target: GlcNAc(b1-2)Man(a1-3)[GlcNAc(b1-2)Man(a1-6)]Man(b1-4)GlcNAc(b1-4)GlcNAc
# Outline: as §1
# [35] = target: GlcNAc(b1-2)Man(a1-3)[GlcNAc(b1-2)Man(a1-6)]Man(b1-4)GlcNAc(b1-4)[Fuc(a1-6)]GlcNAc
# Outline: as §1
# [36] = target: GlcNAc(b1-2)Man(a1-3)[GlcNAc(b1-4)][GlcNAc(b1-2)Man(a1-6)]Man(b1-4)GlcNAc(b1-4)GlcNAc
# Outline: as §1
# [37] = target: GlcNAc(b1-2)Man(a1-3)[GlcNAc(b1-4)][GlcNAc(b1-2)Man(a1-6)]Man(b1-4)GlcNAc(b1-4)[Fuc(a1-6)]GlcNAc
# Outline: as §1
# [38] = target: GlcNAc(b1-2)[GlcNAc(b1-4)]Man(a1-3)[GlcNAc(b1-2)Man(a1-6)]Man(b1-4)GlcNAc(b1-4)GlcNAc
# Outline: as §1
# [39] = target: GlcNAc(b1-2)[GlcNAc(b1-4)]Man(a1-3)[GlcNAc(b1-4)][GlcNAc(b1-2)Man(a1-6)]Man(b1-4)GlcNAc(b1-4)GlcNAc
# Outline: as §1
# [40] = target: GlcNAc(b1-2)[GlcNAc(b1-4)]Man(a1-3)[GlcNAc(b1-4)][GlcNAc(b1-2)[GlcNAc(b1-6)]Man(a1-6)]Man(b1-4)GlcNAc(b1-4)GlcNAc
# Outline: as §1
# [41] = target: GlcNAc(b1-2)[GlcNAc(b1-4)]Man(a1-3)[GlcNAc(b1-4)][GlcNAc(b1-2)[GlcNAc(b1-6)]Man(a1-6)]Man(b1-4)GlcNAc(b1-4)[Fuc(a1-6)]GlcNAc
# Outline: as §1
# [42] = target: GlcNAc(b1-2)[GlcNAc(b1-6)]Man(a1-6)[GlcNAc(b1-2)Man(a1-3)]Man(b1-4)GlcNAc(b1-4)GlcNAc
# Outline: as §1
# [43] = target: GlcNAc(b1-2)[GlcNAc(b1-6)]Man(a1-6)[GlcNAc(b1-2)Man(a1-3)]Man(b1-4)GlcNAc(b1-4)[Fuc(a1-6)]GlcNAc
# Outline: as §1
# [44] = target: GlcNAc(b1-2)[GlcNAc(b1-6)]Man(a1-6)[GlcNAc(b1-2)Man(a1-3)][GlcNAc(b1-4)]Man(b1-4)GlcNAc(b1-4)GlcNAc
# Outline: as §1
# [45] = target: GlcNAc(b1-2)[GlcNAc(b1-6)]Man(a1-6)[GlcNAc(b1-4)][GlcNAc(b1-2)Man(a1-3)]Man(b1-4)GlcNAc(b1-4)GlcNAc
# Outline: as §1
binder,measurement,setting,value
B1,glycan array binding signal (z-score),[1],-0.227
same,glycan array binding signal (z-score),[2],-0.236
same,glycan array binding signal (z-score),[3],-0.237
same,glycan array binding signal (z-score),[4],-0.129
same,glycan array binding signal (z-score),[5],-0.247
same,glycan array binding signal (z-score),[6],-0.229
same,glycan array binding signal (z-score),[7],-0.227
same,glycan array binding signal (z-score),[8],-0.245
same,glycan array binding signal (z-score),[9],-0.228
same,glycan array binding signal (z-score),[10],-0.216
same,glycan array binding signal (z-score),[11],-0.233
same,glycan array binding signal (z-score),[12],-0.226
same,glycan array binding signal (z-score),[13],-0.216
same,glycan array binding signal (z-score),[14],-0.204
same,glycan array binding signal (z-score),[15],-0.232
same,glycan array binding signal (z-score),[16],-0.221
same,glycan array binding signal (z-score),[17],-0.225
same,glycan array binding signal (z-score),[18],-0.224
same,glycan array binding signal (z-score),[19],-0.219
same,glycan array binding signal (z-score),[20],-0.228
same,glycan array binding signal (z-score),[21],-0.2
same,glycan array binding signal (z-score),[22],-0.232
same,glycan array binding signal (z-score),[23],-0.239
same,glycan array binding signal (z-score),[24],-0.221
same,glycan array binding signal (z-score),[25],-0.233
same,glycan array binding signal (z-score),[26],-0.225
same,glycan array binding signal (z-score),[27],-0.226
same,glycan array binding signal (z-score),[28],-0.23
same,glycan array binding signal (z-score),[29],-0.221
same,glycan array binding signal (z-score),[30],-0.223
same,glycan array binding signal (z-score),[31],-0.203
same,glycan array binding signal (z-score),[32],-0.219
same,glycan array binding signal (z-score),[33],-0.23
same,glycan array binding signal (z-score),[34],-0.234
same,glycan array binding signal (z-score),[35],-0.214
same,glycan array binding signal (z-score),[36],-0.249
same,glycan array binding signal (z-score),[37],-0.239
same,glycan array binding signal (z-score),[38],-0.23
same,glycan array binding signal (z-score),[39],-0.229
same,glycan array binding signal (z-score),[40],-0.245
same,glycan array binding signal (z-score),[41],-0.244
same,glycan array binding signal (z-score),[42],-0.232
same,glycan array binding signal (z-score),[43],-0.217
same,glycan array binding signal (z-score),[44],-0.233
same,glycan array binding signal (z-score),[45],-0.253
